Data on 16 sequences can be found in the supplement of paper PMC7726561.

The full ranking holds about 1,400 sequences; the median of “thermal melting temperature (Tm) of peptide-HLA complex” is about 60, and the lowest 2% start at about 45. Some of the results follow.
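Further: cell lysates heated 10 min at 37–73 °C, remaining pHLA pulled down with pan-class I antibody, peptides quantified by DIA-MS versus 37 °C, Tm where half the complex is lost.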

For this assay, the target named is HLA-B*07:02. Kind of assay: thermal melting temperature (Tm) of peptide-HLA complex; higher = more thermostable pHLA complex. Particulars: C1R-B*07:02.
APRPSIPV returned a thermal melting temperature of 61.8 °C. Then NPRIPYTEL, with 61.4 °C; and RPDGFLLVL, with 61.1 °C. In the case of RPTLEGREL, the thermal melting temperature stood at 56.1 °C.

For the sequence RPDDRSQGAII, the thermal melting temperature worked out at 50.1 °C. On to YPNGFRDVL, for which the thermal melting temperature amounted to 64.2 °C.

SPVFRLETL had a thermal melting temperature of 62.6 °C. Then TPRSYVGVTL, with 62.9 °C; and TPEEVRLPL, with 62.1 °C; and RPQLKGVVL, with 61.1 °C. APQRVRVTL had a thermal melting temperature of 56.8 °C.

IPSGIRSLEEL came in with a thermal melting temperature of 61.6 °C. Sequence LVMAPRTVL gave a thermal melting temperature of 60 °C. Then LPHEVDKSEL, with 44.8 °C; and SPYPQELTTL, with 60.1 °C. Then IPGARPVL, with 60.2 °C.
